# Reference: PubChem BioAssay AID1030 (National Center for Advancing Translational Sciences (NCATS), 2008)
# The whole screen tested about 220,000 compounds, of which about 16,000 (7.3%) were called active. This list was built around the results that the source calls inconclusive (neither active nor inactive); the mix of calls is not that of the screen. Calls come from the whole dose curve; as a rule, active = well fitted inhibition curve with a large enough effect (not every such curve was filed as active); inconclusive = small, poorly fitted or top-dose-only effect, or another doubt; inactive = no such curve, though single readings can be large or run the other way. No potency is given beside an inconclusive call; the fits are too rough.
# Molecular target: Aldehyde dehydrogenase 1A1 (Homo sapiens) (UniProt P00352)
# Test: qHTS Assay for Inhibitors of Aldehyde Dehydrogenase 1 (ALDH1A1);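 for activity, negative = inhibition: plate controls were no enzyme wells and a reference inhibitor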
# Details: Purified ALDH1A1, NADH fluorescence, propionaldehyde substrate; series mostly up to 75.3 µM
# Potency is the fitted concentration of half-maximal effect; tags give direction and shape of the fitted curve.
# Sequence of UniProt P00352 (P00352 whole entry, looked up): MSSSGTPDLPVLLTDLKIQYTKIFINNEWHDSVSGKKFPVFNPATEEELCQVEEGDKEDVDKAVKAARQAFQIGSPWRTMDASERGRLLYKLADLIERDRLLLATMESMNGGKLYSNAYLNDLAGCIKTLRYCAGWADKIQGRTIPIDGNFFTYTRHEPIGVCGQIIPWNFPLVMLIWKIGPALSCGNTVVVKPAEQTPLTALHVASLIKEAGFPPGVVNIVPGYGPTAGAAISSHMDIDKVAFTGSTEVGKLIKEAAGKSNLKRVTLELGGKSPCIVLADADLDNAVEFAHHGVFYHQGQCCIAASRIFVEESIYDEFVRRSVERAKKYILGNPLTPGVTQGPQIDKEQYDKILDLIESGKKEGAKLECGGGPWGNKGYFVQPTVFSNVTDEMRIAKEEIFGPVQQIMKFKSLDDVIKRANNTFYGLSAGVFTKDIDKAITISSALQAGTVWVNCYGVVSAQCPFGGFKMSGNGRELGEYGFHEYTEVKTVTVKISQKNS
SMILES,Potency,"activity, negative = inhibition"
N#Cc1ccc(C(=O)NC2CCCc3ccccc32)cc1 (stereo not drawn),"inconclusive [inhibitor, single point]",–
O=C(CNc1cccc2ccccc12)N/N=C/c1cccc(Oc2ccccc2)c1,inactive,–
O=C(Nc1ccc(S(=O)(=O)Nc2nccs2)cc1)c1cc(-c2ccccn2)nc2ccccc12,"inconclusive [inhibitor, partial curve]",–
Cn1c(=NC(=O)CSCC(=O)N2CCCCC2)sc2ccccc21,"inconclusive [inhibitor, single point]",–
CCOc1ccc2oc(-c3ccccc3)c(C(=O)O)c2c1,"inconclusive [inhibitor, partial curve]",–
O=c1cc(O)c2c(=O)n(-c3ccccc3)c3ccccc3c2o1,"inconclusive [inhibitor, single point]",–
O=c1c2ccccc2oc2ncccc12,"inconclusive [inhibitor, single point]",–
O=C(O)C1Cc2ccccc2CN1C(=O)CCl (stereo not drawn),"inconclusive [inhibitor, single point]",–
CCOC(=O)c1c(NC(=O)CSc2c[nH]c3ccccc23)sc2c1CCC2,"inconclusive [inhibitor, single point]",–
COC(=O)C(C#N)c1nc2ccccc2nc1N1CCCC1 (stereo not drawn),"inconclusive [inhibitor, partial curve]",–
CCOc1ccccc1NC(=S)NC1CCCCC1,"inconclusive [inhibitor, single point]",–
Cc1ccccc1NC(=O)C1c2cccc[n+]2CC(=O)N1Cc1ccc2c(c1)OCO2 (stereo not drawn),"inconclusive [inhibitor, single point]",–
CCOC(=O)c1[nH]c2ccccc2c1NC(=O)c1ccc2c(c1)OCO2,"inconclusive [inhibitor, partial curve]",–
CCN(C(=O)COc1ncnc2scc(-c3ccc(F)cc3)c12)C1CCS(=O)(=O)C1 (stereo not drawn),"inconclusive [inhibitor, single point]",–
COc1ccc(OC)c(C2=Nn3c(nnc3-c3ccco3)SC2)c1,inactive,–
CC(=O)c1ccc(N2CCN(C(=O)CCCn3c(=S)[nH]c4cc5c(cc4c3=O)OCO5)CC2)cc1,"inconclusive [inhibitor, single point]",–
CC(C)C(C)NC(=O)COC(=O)/C=C/c1ccc(S(=O)(=O)N2CCc3ccccc32)cc1 (stereo not drawn),"inconclusive [inhibitor, partial curve]",–
CCc1c(C)sc(NC(=O)c2ccco2)c1C(=O)N1CCOCC1,active: 22.4 µM,–
C/C(=N\N=C1/NC(=O)C(C)S1)c1ccc([N+](=O)[O-])cc1 (stereo not drawn),"inconclusive [inhibitor, single point]",–
COc1cc(NC(=O)CSc2nncn2C)cc(OC)c1OC,inactive,–
Cc1ccc(-c2csc(Nc3ccc(S(N)(=O)=O)cc3)n2)o1,active: 2.24 µM,–
CN(C)c1ccc(/C=C2\CCC/C(=C\c3ccccc3)C2=O)cc1,active: 12.6 µM,–

SMILES,Potency,"activity, negative = inhibition"
CC(C)CC(NC(=O)C(NC(=O)OC(C)(C)C)C(C)C)C(=O)N1CCCC1C(N)=O (stereo not drawn),inactive,–
COc1ccc(N=C2S/C(=C\c3ccc(OCC(=O)O)cc3)C(=O)N2CCc2c[nH]c3ccccc23)cc1,"inconclusive [inhibitor, single point]",–
COc1ccc(/C=C/C(=O)c2ccc3c(c2)OCCO3)cc1[N+](=O)[O-],"inconclusive [inhibitor, full curve]",–
COc1ccc(NC(=O)c2cc3c(-c4ccc(OC)c(OC)c4)nn(C)c3s2)cc1OC,inactive,–
COc1nc(N)nc2c1ncn2[C@@H]1C[C@H](O)[C@@H](CO)O1,–,inactive: 8.44% [at 13.5 µM]
CC(C)CNC(=S)Nc1ccccc1F,inactive,–
O=C(NCCc1cccs1)C1CC(c2cccc([N+](=O)[O-])c2)=NO1 (stereo not drawn),"inconclusive [inhibitor, single point]",–
COc1ccc(-c2cc(-c3n[nH]c(=S)n3-c3ccccc3OC)[nH]n2)cc1,"inconclusive [inhibitor, partial curve]",–
O=C(NC1CC1)C1CCN(S(=O)(=O)c2cc(Cl)ccc2Cl)CC1,"inconclusive [inhibitor, single point]",–
O=C(c1ccccc1)c1cccc(NC(=O)c2ccc(Br)o2)c1,"inconclusive [inhibitor, partial curve]",–
O=C(O)c1cccc(-c2ccc(/C=N/NC(=O)C3COc4ccccc4O3)o2)c1 (stereo not drawn),"inconclusive [inhibitor, single point]",–
Cc1cc(C(=O)NCc2cc(C)n(C)n2)sc1-c1ccccc1,"inconclusive [inhibitor, single point]",–
COc1ccc(NC(=O)CC2C(=O)N(c3ccc(OC)cc3)C(=O)N2CCc2cccs2)cc1 (stereo not drawn),"inconclusive [inhibitor, partial curve]",–
C/C(=N/NC(=O)c1ccccc1)C1=C(O)CC(C)(C)CC1=O,"inconclusive [inhibitor, single point]",–
COc1cc(C(C)=O)ccc1OCCN1CCC(Cc2ccccc2)CC1,"inconclusive [inhibitor, single point]",–
C=CCOC(=O)C1=C(C)NC(=S)NC1c1cccs1 (stereo not drawn),active: 2.24 µM,–
O=C(c1nc2nc(-c3ccccc3)cc(C(F)(F)F)n2n1)N1CCCCC1,"inconclusive [inhibitor, partial curve]",–
N#Cc1c(-c2cccc(Br)c2)cc(-c2cccnc2)nc1N,"inconclusive [inhibitor, partial curve]",–
O=C(CSc1nc2ccccc2c(=O)n1-c1ccccc1)N1CCCC1,"inconclusive [inhibitor, single point]",–
COc1ccc(S(=O)(=O)Nc2nc3ccccc3nc2NCc2ccc3c(c2)OCO3)cc1,"inconclusive [inhibitor, partial curve]",–
Cc1ccc(NC(=O)Cn2nc(C)c([N+](=O)[O-])c2C)cc1C,active: 20 µM,–
